Results: PubChem BioAssay AID1347120 (National Center for Advancing Translational Sciences (NCATS), 2019)
Several values for one entry are separate records, joined by “and”; a condition that tells them apart may be missing. Identical values can stand only once. Among all 390,000 compounds or so, about 930 (0.24%) were called active. The shares of active, inactive and inconclusive entries below differ from those in the screen. Calls follow the shape of the dose curve; as a rule, active = well fitted activation curve with a large enough effect; inconclusive = small, poorly fitted or top-dose-only effect; inactive = no such curve, though single readings can be large or run the other way. A potency beside an inconclusive call is a rough fit, not a confirmed value.

assay: qHTS for Suppressors of FUS Proteinopathy: Primary screen using FUS-linked yeast assay; also: nearly all actives have a fitted effect of over 55% in size;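 as to growth rescue (activation): plate controls were DMSO vehicle for no effect and reference control for full effect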; conditions: S. cerevisiae FUS-expressing, OD600, 24 h; Potency: growth rescue; growth rescue (activation): at 76.6 µM (top of the series)
Summary of the method: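 Toxicity suppression screen in FUS-yeast. Cells induced with 2% galactose, starting OD 0.005, treated 24hr at 30C with compounds at multiple final concentrations; growth by OD600.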
Potency is read from the fitted curve at half-maximal effect; tags tell the direction and shape of the fitted curve.

Compound	Potency	growth rescue (activation)
Cc1csc(NC(=O)c2cc3c(s2)CCC3)n1	inconclusive: 0.891 µM [activator, full curve, poor fit]	–
C=CCc1ccccc1OCc1nc2ccccc2n1CC	inactive	–
O=C(NC1CCN(Cc2ccccc2)CC1)c1ccccc1OCc1ccccc1	inactive	–
Cc1cccc(N2C(=O)N3[C@@H]4c5ccccc5OC[C@@H]4[C@@H](c4ccccc4)[C@@]3(C)C2=O)c1	inconclusive: 35.5 µM [activator, partial curve, poor fit]	–
CCOC(=O)CSc1nnc(NC(=O)C2CC(=O)N(c3ccc(F)cc3)C2)s1 (stereo unspecified)	inconclusive: 8.91 µM [activator, partial curve, poor fit]	–
COCCn1c(=O)[nH]c(=O)c2c1nc(-c1cc(Br)c3c(c1)OCO3)n2Cc1ccccc1	inconclusive: 28.2 µM [activator, single point]	–
Cc1ccc(-n2c(SCC(=O)Nc3ccc(S(=O)(=O)Nc4nccs4)cc3)nnc2-c2ccncc2)cc1	inconclusive: 14.1 µM [activator, partial curve, poor fit]	–
COc1ccc(C2CC(c3cccs3)=NN2C(=O)CSc2nnc(N)s2)cc1OC (stereo unspecified)	inconclusive: 3.98 µM [activator, partial curve, poor fit]	–
CCOC(=O)CSC1=C(C#N)C(c2ccco2)C(C(=O)OCc2ccccc2)=C(C)N1 (stereo unspecified)	–	inconclusive: 67.8% [activator]
CC(=O)c1cccc(NC(=O)c2ccc(NC(=O)CC3SC(N4CCCCC4)=NC3=O)cc2)c1 (stereo unspecified)	inconclusive: 14.1 µM [activator, partial curve]	–
O=C(CCC1N=C2c3ccccc3N=C(SCc3cccc(Cl)c3)N2C1=O)N1CCN(c2ccccc2)CC1 (stereo unspecified)	inconclusive: 11.2 µM [activator, partial curve, poor fit]	–
Cc1cc(C)c2c(=O)cc(C(=O)Nc3c(C)n(C)n(-c4ccccc4)c3=O)oc2c1	inactive	–
O=C(OCC(=O)N1CCN(c2ccccc2)CC1)c1ccc2ncsc2c1	–	inconclusive: 90.2% [activator]
O=C(Cn1ccn(-c2ccc(F)c(F)c2)c(=O)c1=O)NCCc1ccccc1	inactive	–
COc1ccc(C(CCN2CCCC(C)C2)c2c(OC)cc(OC)c3c(-c4ccccc4)cc(=O)oc23)cc1 (stereo unspecified)	inconclusive: 7.08 µM [activator, full curve]	–
S=C(c1ccc(OCc2ccccc2)cc1)N1CCCC1	inactive	–
Cc1cc(C)cc(NC(=O)c2cc(S(=O)(=O)N3CCC(C)CC3)cn2C)c1	inactive	–
CC(=O)c1cccc(NC(=O)CCc2c(C)nc3c(c(C)nn3-c3ccccc3)c2C)c1	inactive	–
CN1C(=O)S/C(=C/c2ccccc2OCc2ccc(C(=O)O)cc2)C1=O	inconclusive: 11.2 µM [activator, single point]	–
CCCCOc1ccccc1-c1ccccc1CN1[C@@H](C(C)C)COCCS1(=O)=O	inconclusive: 12.6 µM [activator, partial curve, poor fit]	–
N#Cc1ccc(C(=O)N2CCN(S(=O)(=O)c3ccc(Cl)s3)CC2)cc1	inactive	–

Compound	Potency	growth rescue (activation)
COC(=O)[C@@]1(Cc2ccc(F)cc2)[C@H]2c3cc(C(=O)N(C)C)n(Cc4ccsc4Br)c3C[C@H]2CN1C(=O)c1ccccc1	inconclusive: 10 µM [activator, partial curve]	–
O=c1[nH]c(CN2CCN(c3ccccc3O)CC2)nc2scc(-c3ccccc3Cl)c12	inconclusive: 20 µM [activator, single point]	–
C=CCOc1ccc(C2C(C#N)=C(N)N(Nc3ccccc3)C3=C2C(=O)CCC3)cc1OC (stereo unspecified)	inconclusive: 22.4 µM [activator, single point]	–
O=C(c1cc2c(c(-c3cccc(-c4ccc(F)cc4)c3)n1)[C@H](CCO)N(C(=O)c1ccc3c(c1)OCO3)C2)N1CCOCC1	inconclusive: 10 µM [activator, partial curve]	–
N#Cc1ccc(OCc2nnc(SCC(=O)N3CCCc4ccccc43)n2-c2ccccc2)cc1	inconclusive: 50.1 µM [activator, single point]	–
O=C(NCc1ccncc1)C1CCN(S(=O)(=O)c2cc(Cl)ccc2Cl)CC1	inconclusive: 7.94 µM [activator, partial curve, poor fit]	–
COCc1nn2c(N)c(C#N)cnc2c1-c1ccccc1	inconclusive: 6.31 µM [activator, single point]	–
Cc1cccc(NC(=O)COc2ccc(-c3nn(C)c(=O)c4ccccc34)cc2)c1	inconclusive: 39.8 µM [activator, single point] and inconclusive: 6.31 µM [activator, partial curve, poor fit]	–
CCc1nc2sc(C(=O)O)c(N)c2c2c1CCCC2	inconclusive: 50.1 µM [activator, single point]	–
CCn1cc(CN2CCCC(CO)(Cc3cccc(Cl)c3)C2)cn1 (stereo unspecified)	inactive	–
CCC1=C(OC(=O)N(CC)CC)N2C(=O)OC(=NCCc3c[nH]c4ccccc34)[C@]2(Cc2ccccc2)[C@H]2C1=CC[C@H]1C(=O)N(CC)C(=O)[C@H]12	inconclusive: 35.5 µM [activator, single point]	–
CCS(=O)(=O)c1ccc(O)c(NC(=O)Nc2ccc(C(C)(C)C)cc2)c1	inactive	–
CCC1CCc2sc(C(=O)Nc3cc(S(=O)(=O)N4CCOCC4)ccc3OC)cc2C1 (stereo unspecified)	inconclusive: 28.2 µM [activator, single point]	–
CCOc1ccc(C2c3[nH]c4ccccc4c3CCN2C(=O)CSCc2ccc(F)cc2)cc1 (stereo unspecified)	inconclusive: 44.7 µM [activator, single point]	–
Cc1nc2ccc(S(=O)(=O)Nc3cccc(-c4nc5cccnc5s4)c3)cc2s1	inconclusive: 31.6 µM [activator, single point]	–
CCOC(=O)[C@H]1[C@H]2COc3cc(OC)ccc3[C@@H]2N2C(=O)c3cc(C)ccc3NC(=O)[C@@]12C	inconclusive: 35.5 µM [activator, single point]	–
CCOC(=O)[C@@H]1[C@H]2COc3ccccc3[C@@H]2N2C(=O)N(c3ccc(Cl)cc3)C(=O)[C@]12C	inconclusive: 25.1 µM [activator, partial curve]	–
N/C(=N\OC(=O)CCCOc1ccc(Cl)cc1Cl)c1ccccn1	inactive	–
CC(=O)c1ccc(NS(=O)(=O)c2ccc3[nH]c4c(c3c2)CCCC4)cc1	inconclusive: 31.6 µM [activator, single point]	–
Cc1cc(Cl)cc2c1NC(=O)[C@]21[C@@H]2C(=O)N(Cc3ccccc3)C(=O)[C@@H]2[C@@H]2CCCN21	inconclusive: 28.2 µM [activator, single point]	–
O=C1C(=O)N(CCN2CCOCC2)C(c2ccc([N+](=O)[O-])cc2)/C1=C(/O)c1ccc2c(c1)OCO2 (stereo unspecified)	inconclusive: 44.7 µM [activator, partial curve, poor fit]	–

Compound	Potency	growth rescue (activation)
CCCCCCCCCCC[N+](C)(C)CC/C=C1/c2ccccc2Sc2ccc(Cl)cc21	inconclusive: 31.6 µM [activator, single point]	–
CCc1ccc(S(=O)(=O)c2cn(Cc3ccccc3F)c3cc(OC)c(OC)cc3c2=O)cc1	inconclusive: 28.2 µM [activator, single point]	–
COc1ccc(N2CCN(Cc3nc4c(c(=O)[nH]c(=O)n4C)n3CC(C)C)CC2)cc1	inactive	–
Cc1sc2ncnc(SCC(=O)NC(C)C(C)C)c2c1C (stereo unspecified)	inactive	–
Cc1ccc(-c2nnc(SCC(=O)NNC(=S)Nc3ccccc3)n2C2CCCCC2)cc1	inconclusive: 15.8 µM [activator, partial curve, poor fit]	–
COc1ccc(C2=C(N3CCN(c4cccc(C)c4)C(C)C3)c3ccccc3C2=O)cc1 (stereo unspecified)	inconclusive: 31.6 µM [activator, single point]	–
COc1ccc(N2CC(C(=O)Nc3ccc(S(=O)(=O)Nc4nccs4)cc3)CC2=O)c(OC)c1 (stereo unspecified)	inconclusive: 5.01 µM [activator, full curve]	–
O=C(Nc1cccc(C(F)(F)F)c1)C1Cc2c(-c3cccc(F)c3)ccnc2O1 (stereo unspecified)	inconclusive: 28.2 µM [activator, single point]	–
COc1ccccc1CNC(=O)c1ccc(-c2ccccc2Cl)o1	inconclusive: 25.1 µM [activator, single point]	–
CCCN1C(=O)/C(=C/c2ccc(C)s2)NC1=S	inactive	–
COc1cc(OC)c2ccc(=O)oc2c1C(CCN1CCCCC1)c1ccc(N(C)C)cc1 (stereo unspecified)	inactive	–
COc1cc2c(cc1OC)C(=O)N1[C@H]3c4ccccc4OC[C@@H]3[C@H](c3ccccc3)[C@]1(C)C(=O)N2	inconclusive: 20 µM [activator, partial curve]	–
CC1=C(C(=O)N2CCOCC2)CC(CC(=O)NC2CCCCC2)C(=O)N1Cc1ccc(F)cc1 (stereo unspecified)	inactive	–
Cc1ccc(C(C)C)cc1C(=O)CC1(O)C(=O)N(C)c2ccccc21 (stereo unspecified)	inconclusive: 50.1 µM [activator, single point]	–
Cc1cnc(NC(=O)[C@H](C)N2C(=O)C3CCCCC3C2=O)s1 (stereo partly specified)	inactive	–
Cc1oc(-c2ccccc2Cl)nc1Cn1c(SCc2cccc(F)c2)nc2cccnc21	active: 35.5 µM	–
Cc1nc(NC(=O)c2ccc3c(c2)OCO3)ccc1Br	inactive	–
Cc1ccc(S(=O)(=O)N2CC3(O)CN(C(=O)OC(C)C)N(C(=O)OC(C)C)CC3(OC(=O)NCC3CCCCC3)C2)cc1 (stereo unspecified)	inconclusive: 10 µM [activator, single point]	–
CC(C)OCCCNC(=O)Cn1ccc2cc(S(=O)(=O)N3CCCCCC3)ccc21	inconclusive: 39.8 µM [activator, single point]	–
